The RNAGym collection of RNA variant scans (doi:10.1073/pnas.2313332121)
This sample is rich in variants without activity.

B1: TPR 5TU (parent)
chain: GGAUCUUCUCGAUCUAACAAAAAAGACAAAUCUGCCACAAAGCUUGAGAGCAUCUUCGGAUGCAGAGGCGGCAGCCUUCGGUGGCGCGAUAGCGCCAACGUUCUCAACUAUGACACGCAAAACGCGUGCUCCGUUGAAUGGAGUUUAUCAUG

Variants of: B1
Assay: polymerase ribozyme fitness, log enrichment relative to wild type (log ratio); higher = more active; in vitro selection for triplet polymerase activity
Procedure, shortened: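 Genotype fitness is the logarithm of its enrichment divided by wild-type enrichment, using inverse-variance-weighted averages of replicates. That logarithm is base 2. Enrichment was measured by Illumina sequencing of input and output libraries from one triplicate in vitro selection round, with frozen incubation at −7 °C, on PCR-built, transcribed mutant libraries of each subunit of a heterodimeric triplet polymerase ribozyme, retaining genotypes with ≥10 input reads and ≥1 read per output.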
For C51A C85A A98C A119U A120C A150G, the “polymerase ribozyme fitness (log ratio)” value was ≤ -4.2. In the case of C51G C76A C87U, the “polymerase ribozyme fitness (log ratio)” value is reported as ≤ -4.2. For C51U C76G G84A A137U U151A, the “polymerase ribozyme fitness (log ratio)” value was ≤ -4.2. With C51U C54G G140C A150G the “polymerase ribozyme fitness (log ratio)” value was ≤ -4.2. With C51A C54G G83C G124C the “polymerase ribozyme fitness (log ratio)” value was ≤ -4.2. With C51G A52G U102A the “polymerase ribozyme fitness (log ratio)” value was -3.01. For C51U C69G G94C U146C, the “polymerase ribozyme fitness (log ratio)” value was -1.9. In the case of C51A G58C U61A A73G G94C G133U, the “polymerase ribozyme fitness (log ratio)” value is reported as ≤ -4.2. For A52C G74C C108U A113G U145G, the “polymerase ribozyme fitness (log ratio)” value was ≤ -4.2. In the case of A52C C69G G84U A115C, the “polymerase ribozyme fitness (log ratio)” value is reported as ≤ -4.2. With A52G C87U G141A U148A the “polymerase ribozyme fitness (log ratio)” value was ≤ -4.2. In the case of C51U A52U U53A G83A G92A U109G, the “polymerase ribozyme fitness (log ratio)” value is reported as ≤ -4.2. With C51A G67U G81U G83U C95A C116A C118U U144C the “polymerase ribozyme fitness (log ratio)” value was ≤ -4.2. For A52G C87G C93G U101G G152U, the “polymerase ribozyme fitness (log ratio)” value was ≤ -4.2. With A52C G84C C87U C96A G100A U101G the “polymerase ribozyme fitness (log ratio)” value was ≤ -4.2. In the case of A52G A64U U101G A107C C125G, the “polymerase ribozyme fitness (log ratio)” value is reported as ≤ -4.2. In the case of C51G A106G U144A, the “polymerase ribozyme fitness (log ratio)” value is reported as -3.29. For A52C C54G U55A A91C C96U U111C C116G, the “polymerase ribozyme fitness (log ratio)” value was ≤ -4.2. For C51U G92A, the “polymerase ribozyme fitness (log ratio)” value was -3.5. With A52G C75U C76U A97G C103A A107C the “polymerase ribozyme fitness (log ratio)” value was ≤ -4.2. With C51A C85U C103G G124A U145G A150G the “polymerase ribozyme fitness (log ratio)” value was ≤ -4.2. For A52C G81A C85U C99G, the “polymerase ribozyme fitness (log ratio)” value was ≤ -4.2. With A52G G58A A97U A98G C132U A138U the “polymerase ribozyme fitness (log ratio)” value was ≤ -4.2. With C51A U56A G59A C69A C105G U135G A142U the “polymerase ribozyme fitness (log ratio)” value was ≤ -4.2. For C51U C85G A106G, the “polymerase ribozyme fitness (log ratio)” value was -2.8. For A52C A64C C95U G141U, the “polymerase ribozyme fitness (log ratio)” value was ≤ -4.2. With A52G C63U C76A G94C U151C the “polymerase ribozyme fitness (log ratio)” value was ≤ -4.2. In the case of A52C C93U C103G, the “polymerase ribozyme fitness (log ratio)” value is reported as ≤ -4.2. In the case of C51U A107C, the “polymerase ribozyme fitness (log ratio)” value is reported as ≤ -4.2. With C51A G136A the “polymerase ribozyme fitness (log ratio)” value was -0.23. With C51U A52G C57U G84C G117C A137C A150G G152U the “polymerase ribozyme fitness (log ratio)” value was ≤ -4.2. For C51U C87U C103A C116A, the “polymerase ribozyme fitness (log ratio)” value was -2.08. For C51A C54U A91U G100U G124A U135C, the “polymerase ribozyme fitness (log ratio)” value was ≤ -4.2. In the case of C51U G58U U77G C96A, the “polymerase ribozyme fitness (log ratio)” value is reported as -4.18. With A52G C69U A106C C125U the “polymerase ribozyme fitness (log ratio)” value was -4.12. In the case of A52C A66U G88C G143C, the “polymerase ribozyme fitness (log ratio)” value is reported as ≤ -4.2. For C51G A52U A66U U145A, the “polymerase ribozyme fitness (log ratio)” value was ≤ -4.2. In the case of A52C U78A G84U G141C, the “polymerase ribozyme fitness (log ratio)” value is reported as ≤ -4.2. With C51G C69U C96U C99G the “polymerase ribozyme fitness (log ratio)” value was ≤ -4.2. In the case of C51A C57U C75G G80U C87A A98G U104G A110U, the “polymerase ribozyme fitness (log ratio)” value is reported as ≤ -4.2. For A52C C54A G62C U82G G83A C87A U146G, the “polymerase ribozyme fitness (log ratio)” value was ≤ -4.2. In the case of C51G A97G C118A A138G G141U, the “polymerase ribozyme fitness (log ratio)” value is reported as ≤ -4.2. With A52C G83C C85U A121G A138C the “polymerase ribozyme fitness (log ratio)” value was ≤ -4.2. With C51U A73G G92U the “polymerase ribozyme fitness (log ratio)” value was -0.595. With A52G C54A A91U G94A the “polymerase ribozyme fitness (log ratio)” value was ≤ -4.2. For C51G C76A C114U G133C, the “polymerase ribozyme fitness (log ratio)” value was ≤ -4.2. In the case of C51A C57A C95A C114G A150G, the “polymerase ribozyme fitness (log ratio)” value is reported as ≤ -4.2. In the case of C51U G84U C103G A110U G128C, the “polymerase ribozyme fitness (log ratio)” value is reported as ≤ -4.2. In the case of A52C A137U, the “polymerase ribozyme fitness (log ratio)” value is reported as ≤ -4.2. In the case of A52C C57G, the “polymerase ribozyme fitness (log ratio)” value is reported as -1.79. In the case of A52C C57U, the “polymerase ribozyme fitness (log ratio)” value is reported as -1.24. For A52C G58A G68A, the “polymerase ribozyme fitness (log ratio)” value was ≤ -4.2. For C51A G71U C95G C96U U102G U145C U151C, the “polymerase ribozyme fitness (log ratio)” value was ≤ -4.2. For C51G G94C C149U, the “polymerase ribozyme fitness (log ratio)” value was -3.9. With A52G G59A C87A C99U A119G the “polymerase ribozyme fitness (log ratio)” value was ≤ -4.2. For C51A G65C C75G C93G C131U A142G, the “polymerase ribozyme fitness (log ratio)” value was ≤ -4.2. For C51G U55A, the “polymerase ribozyme fitness (log ratio)” value was -2.88. In the case of C51G G70A C76U G83U G84A A98G U135G, the “polymerase ribozyme fitness (log ratio)” value is reported as ≤ -4.2. With A52C G81A G83C C96U U102A C125G the “polymerase ribozyme fitness (log ratio)” value was ≤ -4.2. With A52C U56C C103G G143C the “polymerase ribozyme fitness (log ratio)” value was -4.12. With A52C G88A C95U C99U A110U the “polymerase ribozyme fitness (log ratio)” value was -4.07. In the case of C51A G65A G94C C114U C132U, the “polymerase ribozyme fitness (log ratio)” value is reported as ≤ -4.2. With C51A U55A U56G G71U A89G A122U the “polymerase ribozyme fitness (log ratio)” value was ≤ -4.2. With A52C C69A C96A the “polymerase ribozyme fitness (log ratio)” value was -3.18. For C51U C93G U130C U145A, the “polymerase ribozyme fitness (log ratio)” value was -3.53. With C51A C99G the “polymerase ribozyme fitness (log ratio)” value was -4.07. In the case of A52C C75G C85U C95U A121G A122U U151G, the “polymerase ribozyme fitness (log ratio)” value is reported as ≤ -4.2. For A52C G58C U82G C93A C95G A107U U130G U139G, the “polymerase ribozyme fitness (log ratio)” value was ≤ -4.2. For A52C U90G G94A C95A C105U U130G, the “polymerase ribozyme fitness (log ratio)” value was ≤ -4.2. For A52C U55A A66C C79G G133U A137G, the “polymerase ribozyme fitness (log ratio)” value was ≤ -4.2. For A52G C57G C87U, the “polymerase ribozyme fitness (log ratio)” value was -1.27. For C51U C85G C108G G112C U139C, the “polymerase ribozyme fitness (log ratio)” value was ≤ -4.2. For C51U C57U A121C A122G G136U U148A, the “polymerase ribozyme fitness (log ratio)” value was ≤ -4.2. In the case of A52G C125U, the “polymerase ribozyme fitness (log ratio)” value is reported as -0.198. With A52C C95U C99U the “polymerase ribozyme fitness (log ratio)” value was -3.18. With A52C C57A C69U C85U the “polymerase ribozyme fitness (log ratio)” value was -3.07. In the case of C51G C63U C116U U139C, the “polymerase ribozyme fitness (log ratio)” value is reported as ≤ -4.2. With A52G C85G the “polymerase ribozyme fitness (log ratio)” value was -2.16. In the case of A52G C85U, the “polymerase ribozyme fitness (log ratio)” value is reported as -0.204. For C51U C57A C85U U111G C129U, the “polymerase ribozyme fitness (log ratio)” value was ≤ -4.2. With C51U U55A C85G C105A C125G G141A the “polymerase ribozyme fitness (log ratio)” value was ≤ -4.2. In the case of A52G A60C C69U C85G C96A U130G, the “polymerase ribozyme fitness (log ratio)” value is reported as ≤ -4.2. For C51G G59C C75U C85U A91U C93A G141U, the “polymerase ribozyme fitness (log ratio)” value was ≤ -4.2.
